Data on 44 sequences can be found in the supplement of paper PMC11417369.

The other results are listed elsewhere or left out.

This experiment relates to PF3D7_0420300 AP2 domain 1 (GST-tagged). Put plainly: gcPBM binding intensity (ln(normalized median fluorescence intensity)); higher = stronger DNA binding. In short, it runs like this:
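Binding intensity is the highest Masliner-normalised natural-log median intensity over replicate spots in either probe orientation. To obtain it, GST-tagged P. falciparum DNA-binding domains made in E. coli were incubated for 1 h on an Agilent 4 × 180k array of primer-extended double-stranded 36-bp intergenic genomic probes plus negative controls. Detection used Alexa488 anti-GST antibody with scanning at 488 nm.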
In the case of “AATGAATTAATAGCTACACACGGTAACATAATAACT [CACACA_site851]”, the “gcPBM binding intensity (ln)” value is 9.73.
Consider “TCTTTTGAACAAATTTGTACGTATATAAAAATATTT [XGTACX_site6547]”, for which the “gcPBM binding intensity (ln)” value stood at 9.07.
In the case of “TATAATAATGCCTTTACATGCAATAATAAAGAAATA [TGCATGCA_site631]” it was 8.99; in that of “TACATAAAAATATCACGTACATATAATCATATACTA [XGTACX_site3505]”, 9.19; in that of “ATATTTCATCTAGCTACACACATATAACAAATTACT [CACACA_site7843]”, 9.73.
The result for “TTCTTTTTCCAATTTGCACACCACAAAATTATATAT [CACACA_site2909]” reads 9.69; that for “ACCTTTGATATATACACACACATAAAAAAAATATAT [CACACA_site6952]”, 9.93; that for “TCAAATTATATGAGTGGTACACATGTAATATTTTTA [XGTACX_site6518]”, 9.06.
In the case of “AAAAAACGACCTTACGCACACATTATTCTAGTCTAT [CACACA_site2349]” it was 9.58; in that of “AAAAAAATATATATTACACACATATATACATATATA [CACACA_site3125]”, 9.55.
On to “ATATATATATATATATGTACTTATTAAGATTAAAAA [XGTACX_site61]”, for which the “gcPBM binding intensity (ln)” value was 9.07.
In the case of “ATATTTTGTATAATCACACACACTATTATTAAATAG [CACACA_site2612]” it was 9.64.
In the case of “TTACATTTTTTATGTTTTTTTATATTGCAAAAAAAT [CACACA_negctrl_site1050]” it was 8.88; in that of “TTAAATATAAAAAGTAGTACATTTATATTTACCATA [XGTACX_site2962]”, 8.96.
Take “AAAAAGTAGTAAAACAGTACAGTATTTATGCCTATT [XGTACX_site6434]”: the “gcPBM binding intensity (ln)” value was 9.47.
For the sequence “AAAAAAAAAAAAAGTACACACTTTTGCGTACATGTA [CACACA_site7449]”, the “gcPBM binding intensity (ln)” value is 9.26.
As to “AATATATTTTTCTACCGTACATAATAAAATATATAT [XGTACX_site1777]”, the “gcPBM binding intensity (ln)” value came out at 9.2.
For the sequence “TATTTATTTATTTATTGTACATAAGTATATATTATA [XGTACX_site6566]”, the “gcPBM binding intensity (ln)” value was determined as 9.18.
In the case of “GAACCACTAAAATGAGCATGCTCATATTTACATATA [TGCATGCA_site1033]” it was 9.23; in that of “ATATATATATATATATGTACTTATATATAATATAGA [XGTACX_site3488]”, 9.04.
The result for “GTACTCTTCTCCAGACTGCACTATACGACTCGTACA [GTGCAC_site9770]” reads 9.22; that for “ATTACATACACGCGCACACACAAAAAAAAAAAAAAA [CACACA_site1334]”, 9.57; that for “TGGTATGTTTTACAAAGTACCCATCGATTCTTATGT [XGTACX_site2822]”, 9.27.
In the case of “TATATTTTATAAAAAAGTACACATGAAAATGTATTT [XGTACX_site5889]” it was 9.11.
In the case of “ATATTTAAAGAATAAGTGCAAAATGTAATTAATTTT [GTGCAC_site9901]”, the “gcPBM binding intensity (ln)” value was determined as 9.28.
In the case of “TATTTATTACTATGTAAACACACATGCAATATATGT [CACACA_site8288]” it was 9.31; in that of “TGTAGTCTGGAGAAACGTACACAGTATCTGGTAACA [XGTACX_site4938]”, 9.1.
As to “AAAGGGGATATATGAACACACAAAAAAAAAATATAT [CACACA_site2896]”, the “gcPBM binding intensity (ln)” value is 9.72.
With “TTTTTTCCTTTTAATTGTACACAGATATAATATATT [XGTACX_site2230]”, the “gcPBM binding intensity (ln)” value is 9.33.
As to “AAATTTTATTATAGCAGTACAATATAATATTATTAA [XGTACX_site1971]”, the “gcPBM binding intensity (ln)” value was found to be 9.13.
In the case of “AAATATTTTTTTTCTACACACATACAAATATAGATT [CACACA_site7164]” it was 9.48.
The result for “ATGCCCCATATAAACACACAAATAAAAAGAATATAC [CACACA_site7292]” reads 9.72.
As to “AAATAAGAGCGTAGCACACACGCATTTTATAAATGT [CACACA_site741]”, the “gcPBM binding intensity (ln)” value came to 9.44.
As to “TTTTTTTTTTTTTTTGCATGTTGTTTAATGTATTGT [TGCATGCA_site772]”, the “gcPBM binding intensity (ln)” value came to 9.11.
In the case of “TATCATTTTATTATTCTACACACTTATCTATAATTA [CACACA_site7894]” it was 9.6; in that of “TTTTACAAAATAAAAATATAGAATACGGTAAATTAT [GTGCAC_negctrl_site40]”, 9.25; in that of “TAAAAATGTGGACACACACACATATTTATATTTAAT [CACACA_site6827]”, 9.62.
The result for “TGTTGATGATATTACACACCCAATGAGAAAAGGAAT [CACACA_site2072]” reads 9.51; that for “AAAAATTTAAGTGGGGGTACATTTTTTTAACACCTT [XGTACX_site1093]”, 9.56.
For “AACAAACACGGACACACACACACACTAGAATGATTA [CACACA_site5364]”, the “gcPBM binding intensity (ln)” value is 10.2.
Turning to “TAATATATTAACATGGGTACATATTATTTCATGTGT [XGTACX_site5985]”, the “gcPBM binding intensity (ln)” value was 9.37.
Consider “ATATTTAAATGTAATACATGCAAATTTGAACATTTT [TGCATGCA_site736]”, for which the “gcPBM binding intensity (ln)” value came to 9.23.
In the case of “AAAAAAAAAAAAATCACACATATGTATTTATATATA [CACACA_site5790]” it was 9.18.
Take “ATATAATTAAAATGCTCACACACATAAAAAAAAATT [CACACA_site2148]”: the “gcPBM binding intensity (ln)” value came to 9.7.
